Results: PMC6919601, “Identification of Plasmodium dipeptidyl aminopeptidase allosteric inhibitors by high throughput screening” (PLoS ONE, 2019)
The whole screen tested about 110,000 compounds, of which about 230 (0.21%) showed an effect of 50% or more. This is one part of the list.

target: DPAP1 (Plasmodium falciparum, UniProt Q8IIJ9); experiment: primary screen, percent inhibition; read by cleavage of a fluorogenic dipeptide substrate; higher = more effect of the substance; design: species or system P. falciparum D10 trophozoite lysates; single well
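Also: 30 min substrate incubation versus DMSO and 10 µM JCP410 controls.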

Chain of DPAP1 (Q8IIJ9 whole entry, looked up): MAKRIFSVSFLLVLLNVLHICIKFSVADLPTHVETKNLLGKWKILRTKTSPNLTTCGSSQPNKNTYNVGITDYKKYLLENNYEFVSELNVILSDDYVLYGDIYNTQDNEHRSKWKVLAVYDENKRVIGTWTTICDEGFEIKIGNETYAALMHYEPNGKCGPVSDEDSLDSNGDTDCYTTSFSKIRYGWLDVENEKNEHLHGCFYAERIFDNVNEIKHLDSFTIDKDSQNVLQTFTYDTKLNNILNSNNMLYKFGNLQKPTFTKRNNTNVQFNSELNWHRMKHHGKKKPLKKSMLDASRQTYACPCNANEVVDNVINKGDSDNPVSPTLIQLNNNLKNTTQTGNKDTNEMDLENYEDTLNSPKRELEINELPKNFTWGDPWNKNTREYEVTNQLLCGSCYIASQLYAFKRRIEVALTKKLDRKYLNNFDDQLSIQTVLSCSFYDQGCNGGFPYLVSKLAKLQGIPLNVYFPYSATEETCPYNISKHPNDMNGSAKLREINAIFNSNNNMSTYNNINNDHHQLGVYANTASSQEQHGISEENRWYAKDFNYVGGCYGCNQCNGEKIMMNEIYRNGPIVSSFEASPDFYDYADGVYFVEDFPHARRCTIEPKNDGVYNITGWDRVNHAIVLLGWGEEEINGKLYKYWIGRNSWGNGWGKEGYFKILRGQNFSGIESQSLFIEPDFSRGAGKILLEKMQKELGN

Question: For `Cc1ccc(-n2nc(C)c3c2OC(N)=C(C#N)C3c2ccsc2)cc1` (stereo not drawn), which “% Inhibition @ 10 uM” value is on record?
Answer: -2.68%

Question: With `CCc1cc(C(=O)Cc2nc3ccccc3[nH]2)c(O)cc1O` as the compound, how does the “% Inhibition @ 10 uM” value read?
Answer: 1.21%

Question: For `COc1ccc2[nH]c3c(=O)n(CCC(=O)NCCc4ccc(Cl)cc4)c(=S)[nH]c3c2c1`, which “% Inhibition @ 10 uM” value is on record?
Answer: -5.76%

Question: For `COc1ccc(C2(O)CSC3=C(C#N)C(c4ccc(C(F)(F)F)cc4)CC(=O)N32)cc1OC` (stereo not drawn), which “% Inhibition @ 10 uM” value is on record?
Answer: -1.74%

Question: `O=S(=O)(c1ccc(-c2csc(-c3cccnc3)n2)cc1)N1CCCC1` was tested. Which “% Inhibition @ 10 uM” value did it give?
Answer: -0.661%

Question: How did the “% Inhibition @ 10 uM” value turn out when `CC(=O)c1ccc(NC(=O)CN2CCCCC2)cc1` was run?
Answer: -7.42%

Question: How did the “% Inhibition @ 10 uM” value turn out when `CC(C)C[C@H](NC(=O)C1CCNCC1)C(=O)NC1CCCN/C1=C\[N+](=O)[O-]` (stereo partly drawn) was run?
Answer: 2.22%

Question: `NC(=O)c1ccccc1NC(=O)c1sc2ccccc2c1Cl` was tested. Which “% Inhibition @ 10 uM” value did it give?
Answer: -3.35%

Question: `COc1ccccc1C1CC(=O)N=C(NC(=O)c2ccccc2)N1` (stereo not drawn) was tested. Which “% Inhibition @ 10 uM” value did it give?
Answer: -2.76%

Question: With `CCCOc1cccc(C2c3c(oc4ccc(F)cc4c3=O)C(=O)N2CCOC)c1` (stereo not drawn) as the compound, how does the “% Inhibition @ 10 uM” value read?
Answer: -6.71%

Question: For `CCN(CC)CCCNC(=O)c1oc2ccc3c(c2c1C)C(O)CC(C)(C)O3` (stereo not drawn), which “% Inhibition @ 10 uM” value is on record?
Answer: -0.591%

Question: How did the “% Inhibition @ 10 uM” value turn out when `COc1nc(N)c(C#N)c(-c2ccc3c(c2)OCO3)c1C#N` was run?
Answer: 0.716%

Question: `O=C1NC(=O)N(c2ccc(Cl)cc2)C(=O)/C1=C\NCCc1c[nH]c2ccccc12` was tested. Which “% Inhibition @ 10 uM” value did it give?
Answer: -0.725%

Question: With `CCOC(=O)C1CCCN(C(C)Cc2cccc(C(F)(F)F)c2)C1` (stereo not drawn) as the compound, how does the “% Inhibition @ 10 uM” value read?
Answer: -7.18%

Question: `Cc1[nH]c2ccccc2c1C(OC(C)C)c1ccccn1` (stereo not drawn) was tested. Which “% Inhibition @ 10 uM” value did it give?
Answer: -3.33%

Question: How did the “% Inhibition @ 10 uM” value turn out when `CCOC(=O)C1=C(CC)OC(N)=C(C#N)C1c1ccccc1F` (stereo not drawn) was run?
Answer: 3.03%

Question: How did the “% Inhibition @ 10 uM” value turn out when `CC1CCN(C(=O)c2cc(-c3ccc(F)cc3)on2)CC1` was run?
Answer: -1.96%

Question: How did the “% Inhibition @ 10 uM” value turn out when `O=C(NCc1cccnc1)/C(=C\c1ccc(Br)cc1)S(=O)(=O)c1ccccc1` was run?
Answer: -1.25%

Question: With `CCOC(=O)c1c(C)c(-c2ccccc2)n(CC(=O)NC2CCC(C)CC2)c1C` (stereo not drawn) as the compound, how does the “% Inhibition @ 10 uM” value read?
Answer: 3.32%

Question: With `COc1cc2c(cc1OC)C(C)N(C(=O)c1cc3c(s1)-c1ccccc1S(=O)(=O)C3)CC2` (stereo not drawn) as the compound, how does the “% Inhibition @ 10 uM” value read?
Answer: -4.24%

Question: How did the “% Inhibition @ 10 uM” value turn out when `CC(C)(C)c1ccc(/C=C/C(=O)Nc2cccnc2)cc1` was run?
Answer: -3.14%

Question: `CC(CNc1nc2c(-c3ccccc3)nnn2c2ccccc12)c1ccccc1` (stereo not drawn) was tested. Which “% Inhibition @ 10 uM” value did it give?
Answer: -2.92%

Question: How did the “% Inhibition @ 10 uM” value turn out when `CCCCn1c(CNC(=O)c2cc(OC)c(OC)c(OC)c2)nc2ccccc21` was run?
Answer: 8.55%

Question: `Cc1ccc(C(=O)/C=C(\c2ccccc2)N2CCCCC2)cc1` was tested. Which “% Inhibition @ 10 uM” value did it give?
Answer: 1.44%

Question: For `CCN(CC)S(=O)(=O)c1ccc(S(=O)(=O)N(Cc2cccc(OC)c2OC)C2CC2)cc1`, which “% Inhibition @ 10 uM” value is on record?
Answer: -1.31%

Question: `C=CCC1(NCc2ccccc2)CCCCCC1` was tested. Which “% Inhibition @ 10 uM” value did it give?
Answer: -4.4%

Question: With `Cn1c(=O)[nH]c(=O)c2c1nc(Br)n2CC(O)COc1ccc2ccccc2c1` (stereo not drawn) as the compound, how does the “% Inhibition @ 10 uM” value read?
Answer: -0.996%

Question: Which “% Inhibition @ 10 uM” value does the source give for `CC1CCC(C(C)C)C(OC(=O)CSc2nc3ccccc3[nH]2)C1` (stereo not drawn) here?
Answer: 3.74%

Question: With `O=C(O)c1ccc(NCCCO)c([N+](=O)[O-])c1` as the compound, how does the “% Inhibition @ 10 uM” value read?
Answer: -1.46%

Question: `COc1ccc(C(=O)Nc2cc(C)cc(C)c2)cc1Br` was tested. Which “% Inhibition @ 10 uM” value did it give?
Answer: 5.06%

Question: For `CC1CCN(C2=NC(=O)/C(=C\c3ccccc3)S2)CC1`, which “% Inhibition @ 10 uM” value is on record?
Answer: -0.28%

Question: For `C=CCN1C(=O)S/C(=C/c2cc(Cl)c(OC)c(OCC)c2)C1=O`, which “% Inhibition @ 10 uM” value is on record?
Answer: -1.11%

Question: `N#Cc1nc(/C=C/c2ccc(F)cc2)oc1N1CCN(Cc2ccccc2)CC1` was tested. Which “% Inhibition @ 10 uM” value did it give?
Answer: -2.57%

Question: With `CCC(C(=O)NCc1ccccc1C)n1sc2ccccc2c1=O` (stereo not drawn) as the compound, how does the “% Inhibition @ 10 uM” value read?
Answer: 3.24%

Question: Which “% Inhibition @ 10 uM” value does the source give for `O=C1NC(=O)/C(=C\c2cccc(OCc3ccccc3F)c2)S1` here?
Answer: 3.04%

Question: `Cc1ccc(OC(C)C(=O)Nc2ccc(C)c(O)c2)cc1` (stereo not drawn) was tested. Which “% Inhibition @ 10 uM” value did it give?
Answer: 0.795%

Question: How did the “% Inhibition @ 10 uM” value turn out when `CCc1cc(C(=O)COc2ccccc2)c(O)cc1O` was run?
Answer: 2.37%

Question: How did the “% Inhibition @ 10 uM” value turn out when `COc1ccc(CNC(=O)C2CCCN(S(=O)(=O)c3ccc(Br)s3)C2)cc1` (stereo not drawn) was run?
Answer: -1.92%

Question: For `N#CC(C#N)=Cc1c[nH]c2ccccc12`, which “% Inhibition @ 10 uM” value is on record?
Answer: -5.33%

Question: With `COc1cc(C2C3=C(O)CCCC3=NC(C)=C2C(=O)N2CCOCC2)cc(Br)c1O` (stereo not drawn) as the compound, how does the “% Inhibition @ 10 uM” value read?
Answer: -2.64%

Question: Which “% Inhibition @ 10 uM” value does the source give for `Oc1ncnc2c1sc1nc3c(c(-c4ccccc4)c12)CCC3` here?
Answer: -2.28%

Question: `Cc1sc(NC(=O)c2ccco2)c(C(c2cccc(O)c2)N2CCOCC2)c1C` (stereo not drawn) was tested. Which “% Inhibition @ 10 uM” value did it give?
Answer: -8.28%

Question: With `COc1ccc(/C=C2\N=C(c3cc(Br)ccc3OC)OC2=O)c(OC)c1` as the compound, how does the “% Inhibition @ 10 uM” value read?
Answer: -6.62%

Question: How did the “% Inhibition @ 10 uM” value turn out when `O=C(NCc1ccc(Cl)cc1)c1nccnc1CO` was run?
Answer: 2.13%

Question: Which “% Inhibition @ 10 uM” value does the source give for `Cc1ccc(-c2onc(C)c2C)cc1S(=O)(=O)NCCc1ccc(Cl)cc1` here?
Answer: -9.1%

Question: Which “% Inhibition @ 10 uM” value does the source give for `CCc1c(C#N)c(SCC(=O)Nc2nc(-c3ccccc3)ns2)nc2c1C(=O)CC(C)(C)C2` here?
Answer: 3.27%

Question: With `Cc1c(Cl)cccc1N(CC(=O)Nc1cccnc1)S(C)(=O)=O` as the compound, how does the “% Inhibition @ 10 uM” value read?
Answer: -5.7%

Question: How did the “% Inhibition @ 10 uM” value turn out when `N#CCCC(CCC#N)C1=NCCc2ccccc21` was run?
Answer: -0.856%

Question: For `Cc1c(CNCCc2ccc(S(N)(=O)=O)cc2)c(C(=O)O)c(C)n1Cc1ccccc1F`, which “% Inhibition @ 10 uM” value is on record?
Answer: -0.23%

Question: With `Cc1nc2ccccc2n1CCc1nc2c3ccccc3nc(N3CCc4ccccc4C3)n2n1` as the compound, how does the “% Inhibition @ 10 uM” value read?
Answer: 2.6%

Question: For `CC(C)Cc1ccc(C(C)C(=O)NC(C)Cc2c[nH]c3ccccc23)cc1` (stereo not drawn), which “% Inhibition @ 10 uM” value is on record?
Answer: 1.7%

Question: With `COc1ccc(N(CC(=O)Nc2ccccc2-c2ccccc2)S(C)(=O)=O)c(OC)c1` as the compound, how does the “% Inhibition @ 10 uM” value read?
Answer: -3.1%

Question: `CC(=O)Nc1ccc(N2Cc3ccccc3C2)cc1` was tested. Which “% Inhibition @ 10 uM” value did it give?
Answer: -3.77%

Question: For `Clc1cccc(CN2CCN(c3ncccn3)CC2)c1Cl`, which “% Inhibition @ 10 uM” value is on record?
Answer: -2.7%

Question: For `COC(=O)c1sccc1NC(=O)C(c1ccccc1)N1Cc2ccccc2C1=O` (stereo not drawn), which “% Inhibition @ 10 uM” value is on record?
Answer: -0.501%

Question: Which “% Inhibition @ 10 uM” value does the source give for `CCCCOc1ccccc1C1C(C(=O)OC)=CN(Cc2ccc(OC)c(OC)c2)C=C1C(=O)OC` here?
Answer: 4.99%

Question: Which “% Inhibition @ 10 uM” value does the source give for `CCCc1c(O)c2ccccc2n(-c2ccccc2)c1=O` here?
Answer: -5.63%

Question: With `CCCN1CCN(c2cnnc3c(Cl)cccc23)CC1` as the compound, how does the “% Inhibition @ 10 uM” value read?
Answer: 1.4%

Question: How did the “% Inhibition @ 10 uM” value turn out when `Cc1nn(C(C)C(=O)NCCCc2ccccc2)c(=O)c2c1sc1ccccc12` (stereo not drawn) was run?
Answer: -2.94%

Question: With `O=C(Nc1ccc(Cc2ccncc2)cc1)c1cccc(Cl)c1` as the compound, how does the “% Inhibition @ 10 uM” value read?
Answer: 0.245%

Question: For `COc1ccccc1/C=C1\N=C(c2ccco2)OC1=O`, which “% Inhibition @ 10 uM” value is on record?
Answer: -6.18%

Question: With `CCCCCSc1nnc(O)nc1O` as the compound, how does the “% Inhibition @ 10 uM” value read?
Answer: 5.7%

Question: With `Cc1ccc2c(nc3s/c(=C\c4ccc(Cl)cc4)c(=O)n32)c1C` as the compound, how does the “% Inhibition @ 10 uM” value read?
Answer: 3.15%
